# ± gives the standard error. This sample is rich in variants without activity.
# B1: glmS ribozyme (parent)
# chain: AUAAAAGCGCCAGAACUACAGAAAUGUAGUUGACGAGGAGGAGGUUUAUCGAAUUUUCGGCGGAUGCCUCCAAA
# Columns and labels:
# Conditions in all cases: with glucosamine-6-phosphate
# glucosamine-6-phosphate [1] = variants of: B1; assay: self-cleavage kobs at 40 uM GlcN6P; higher = faster cleavage; RNA array
# Method in brief: (§1)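 Weighted Michaelis–Menten fits across concentrations supplied kcat and KM, based on kobs from one- or two-exponential decay fits to normalised per-tile medians. The data came from barcoded ribozyme variants transcribed in situ by E. coli RNA polymerase on sequenced MiSeq chips and tracked at 37 °C by a hybridised Cy3 probe. Glucosamine-6-phosphate (40 μM to 10 mM) in HEPES/KCl/Mg(OAc)2 buffer was flowed in.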
# glucosamine-6-phosphate [2] = variants of: B1; assay: self-cleavage kobs at 2500 uM GlcN6P; higher = faster cleavage; RNA array
# Method in brief: as §1
# glucosamine-6-phosphate [3] = variants of: B1; assay: self-cleavage kobs at 10000 uM GlcN6P; higher = faster cleavage; RNA array
# Method in brief: as §1
# glucosamine-6-phosphate [4] = variants of: B1; assay: self-cleavage kobs at 160 uM GlcN6P; higher = faster cleavage; RNA array
# Method in brief: as §1
# glucosamine-6-phosphate [5] = variants of: B1; assay: self-cleavage kobs at 640 uM GlcN6P; higher = faster cleavage; RNA array
# Method in brief: as §1
Variant,self-cleavage kobs at 40 uM GlcN6P (glucosamine-6-phosphate [1]),self-cleavage kobs at 2500 uM GlcN6P (glucosamine-6-phosphate [2]),self-cleavage kobs at 10000 uM GlcN6P (glucosamine-6-phosphate [3]),self-cleavage kobs at 160 uM GlcN6P (glucosamine-6-phosphate [4]),self-cleavage kobs at 640 uM GlcN6P (glucosamine-6-phosphate [5])
G44A U46A U57C C68U,< 1e-05 s⁻¹,< 1e-05 s⁻¹,< 1e-05 s⁻¹,,
A53U G62A,< 1e-05 s⁻¹,< 1e-05 s⁻¹,< 1e-05 s⁻¹,< 1e-05 s⁻¹,
A53U G62C,< 1e-05 s⁻¹,< 1e-05 s⁻¹,< 1e-05 s⁻¹,,< 1e-05 s⁻¹
U49A G62C,< 1e-05 s⁻¹,,< 1e-05 s⁻¹,,
G44A G60A,< 1e-05 s⁻¹,< 1e-05 s⁻¹,< 1e-05 s⁻¹,< 1e-05 s⁻¹,< 1e-05 s⁻¹
G44U C70G,< 1e-05 s⁻¹,< 1e-05 s⁻¹,< 1e-05 s⁻¹,< 1e-05 s⁻¹,< 1e-05 s⁻¹
C50U G59A G60A,< 1e-05 s⁻¹,,,< 1e-05 s⁻¹,< 1e-05 s⁻¹
U47C A48G C50G C70G,3.16e-05 ± 1.6e-05 s⁻¹,,,,
U45C U65C,< 1e-05 s⁻¹,,,,
U49C C71G,< 1e-05 s⁻¹,,< 1e-05 s⁻¹,< 1e-05 s⁻¹,
G44U C50G G60C,< 1e-05 s⁻¹,,,,
C50G G62A,3.58e-05 ± 1.1e-05 s⁻¹,0.000168 ± 3.3e-05 s⁻¹,,0.000128 ± 2.4e-05 s⁻¹,
U54A U56A,0.00022 ± 4e-05 s⁻¹,0.00712 ± 0.002 s⁻¹,0.00887 ± 0.0017 s⁻¹,0.000706 ± 0.0002 s⁻¹,0.00224 ± 0.00048 s⁻¹
U57G C68G,2.48e-05 ± 1.2e-05 s⁻¹,5.88e-05 ± 1.3e-05 s⁻¹,,4.02e-05 ± 1.5e-05 s⁻¹,4.72e-05 ± 1.4e-05 s⁻¹
U57A U65C,< 1e-05 s⁻¹,,,,< 1e-05 s⁻¹
A48G U65G,< 1e-05 s⁻¹,,3.81e-05 ± 1.3e-05 s⁻¹,< 1e-05 s⁻¹,
A52C C71U,< 1e-05 s⁻¹,,,,
G44A U46A G62C,< 1e-05 s⁻¹,< 1e-05 s⁻¹,< 1e-05 s⁻¹,,
U55A G60U,< 1e-05 s⁻¹,,,< 1e-05 s⁻¹,
U55G C68A C71U,< 1e-05 s⁻¹,,,,
U56G G63A,< 1e-05 s⁻¹,,< 1e-05 s⁻¹,,
A53C G60U,< 1e-05 s⁻¹,,,< 1e-05 s⁻¹,< 1e-05 s⁻¹
G43C G66C,< 1e-05 s⁻¹,< 1e-05 s⁻¹,< 1e-05 s⁻¹,< 1e-05 s⁻¹,
